Some of the results follow. Repeats are few or missing, and single values can be far off.
tested on: RVH-421; assay: cell count relative to DMSO control; melanoma cells; higher = more viable cells; conditions: library dose: low library concentration; 72 h
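Further: cell number obtained by counting DAPI-stained nuclei in high-throughput microscope images with image analysis software, screen run in 1,536-well plates.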

How did the cell count turn out when CO[C@H]1C[C@@H]2CC[C@@H](C)[C@@](O)(O2)C(=O)C(=O)N2CCCC[C@H]2C(=O)O[C@H]([C@H](C)C[C@@H]2CC[C@@H](OCCO)[C@H](OC)C2)CC(=O)[C@H](C)/C=C(\C)[C@@H](O)[C@@H](OC)C(=O)[C@H](C)C[C@H](C)/C=C/C=C/C=C/1C [everolimus] + COCC[n+]1c2c(n(Cc3cnccn3)c1C)C(=O)c1ccccc1C2=O [YM155] (first compound 0.02 µM, partner dose 0.0004 µM) was run?
Its cell count is 85.5%.

For CO[C@H]1C[C@@H]2CC[C@@H](C)[C@@](O)(O2)C(=O)C(=O)N2CCCC[C@H]2C(=O)O[C@H]([C@H](C)C[C@@H]2CC[C@@H](OCCO)[C@H](OC)C2)CC(=O)[C@H](C)/C=C(\C)[C@@H](O)[C@@H](OC)C(=O)[C@H](C)C[C@H](C)/C=C/C=C/C=C/1C [everolimus] + C=CCNC1=C2C[C@@H](C)C[C@H](OC)[C@H](O)[C@@H](C)/C=C(\C)[C@H](OC(N)=O)[C@@H](OC)/C=C\C=C(/C)C(=O)NC(=CC1=O)C2=O [Tanespimycin] (first compound 0.02 µM, partner dose 0.002 µM), which cell count is on record?
The cell count was 93.7%.

With Nc1nc(F)nc2c1ncn2[C@@H]1O[C@H](CO)[C@@H](O)[C@@H]1O [fludarabine] + Cn1nnc2c(C(N)=O)ncn2c1=O [temozolomide] (first compound 0.2 µM, partner dose 2 µM) as the compound, how does the cell count read?
Its cell count is 98.9%.

Which cell count does the source give for CC(=O)c1c(C)c2cnc(Nc3ccc(N4CCNCC4)cn3)nc2n(C2CCCC2)c1=O [palbociclib] + O=S(=O)(c1ccccc1)N(CC(F)(F)F)c1ccc(C(O)(C(F)(F)F)C(F)(F)F)cc1 [T0901317] (first compound 0.04 µM, partner dose 1.4 µM) here?
The cell count was 67%.

CO[C@H]1C[C@@H]2CC[C@@H](C)[C@@](O)(O2)C(=O)C(=O)N2CCCC[C@H]2C(=O)O[C@H]([C@H](C)C[C@@H]2CC[C@@H](OCCO)[C@H](OC)C2)CC(=O)[C@H](C)/C=C(\C)[C@@H](O)[C@@H](OC)C(=O)[C@H](C)C[C@H](C)/C=C/C=C/C=C/1C [everolimus] + CCCS(=O)(=O)Nc1ccc(F)c(C(=O)c2c[nH]c3ncc(Cl)cc23)c1F [PLX4720] (first compound 0.02 µM, partner dose 0.08 µM) was tested. Which cell count did it give?
The cell count was 82.1%.

Nc1ncn([C@H]2C[C@H](O)[C@@H](CO)O2)c(=O)n1 [decitabine] + Cn1cncc1[C@@](N)(c1ccc(Cl)cc1)c1ccc2c(c1)c(-c1cccc(Cl)c1)cc(=O)n2C [tipifarnib] (first compound 0.1 µM, partner dose 0.01 µM) was tested. Which cell count did it give?
Its cell count is 66%.

Which cell count does the source give for CO[C@H]1C[C@@H]2CC[C@@H](C)[C@@](O)(O2)C(=O)C(=O)N2CCCC[C@H]2C(=O)O[C@H]([C@H](C)C[C@@H]2CC[C@@H](OCCO)[C@H](OC)C2)CC(=O)[C@H](C)/C=C(\C)[C@@H](O)[C@@H](OC)C(=O)[C@H](C)C[C@H](C)/C=C/C=C/C=C/1C [everolimus] + Nc1ccn([C@@H]2O[C@H](CO)[C@@H](O)C2(F)F)c(=O)n1 [gemcitabine] (first compound 0.02 µM, partner dose 0.0004 µM) here?
The cell count was 68.4%.

How did the cell count turn out when CC(=O)O[C@@]12CO[C@@H]1C[C@H](O)[C@@]1(C)C(=O)[C@H](O)C3=C(C)[C@@H](OC(=O)[C@H](O)[C@@H](NC(=O)OC(C)(C)C)c4ccccc4)C[C@@](O)([C@@H](OC(=O)c4ccccc4)[C@H]21)C3(C)C [Docetaxel] + COc1cc2ncnc(Nc3ccc(Oc4ccccc4)cc3)c2cc1OC [SrcI1] (first compound 0.0001 µM, partner dose 2 µM) was run?
The cell count was 65.7%.

For CO[C@H]1C[C@@H]2CC[C@@H](C)[C@@](O)(O2)C(=O)C(=O)N2CCCC[C@H]2C(=O)O[C@H]([C@H](C)C[C@@H]2CC[C@@H](OCCO)[C@H](OC)C2)CC(=O)[C@H](C)/C=C(\C)[C@@H](O)[C@@H](OC)C(=O)[C@H](C)C[C@H](C)/C=C/C=C/C=C/1C [everolimus] + CC(C)CCN1c2nc(Nc3cc(F)c(O)c(F)c3)ncc2N(C)C(=O)C1C [BID1870] (first compound 0.02 µM, partner dose 0.2 µM), which cell count is on record?
The cell count was 86.6%.

How did the cell count turn out when CO[C@H]1C[C@@H]2CC[C@@H](C)[C@@](O)(O2)C(=O)C(=O)N2CCCC[C@H]2C(=O)O[C@H]([C@H](C)C[C@@H]2CC[C@@H](OCCO)[C@H](OC)C2)CC(=O)[C@H](C)/C=C(\C)[C@@H](O)[C@@H](OC)C(=O)[C@H](C)C[C@H](C)/C=C/C=C/C=C/1C [everolimus] + Nc1cccc2c1CN(C1CCC(=O)NC1=O)C2=O [lenalidomide] (first compound 0.02 µM, partner dose 1 µM) was run?
Its cell count is 90%.

How did the cell count turn out when CO[C@H]1C[C@@H]2CC[C@@H](C)[C@@](O)(O2)C(=O)C(=O)N2CCCC[C@H]2C(=O)O[C@H]([C@H](C)C[C@@H]2CC[C@@H](OCCO)[C@H](OC)C2)CC(=O)[C@H](C)/C=C(\C)[C@@H](O)[C@@H](OC)C(=O)[C@H](C)C[C@H](C)/C=C/C=C/C=C/1C [everolimus] + CS(=O)(=O)CCNCc1ccc(-c2ccc3ncnc(Nc4ccc(OCc5cccc(F)c5)c(Cl)c4)c3c2)o1 [lapatinib] (first compound 0.02 µM, partner dose 0.8 µM) was run?
The cell count was 73.5%.

With CO[C@H]1C[C@@H]2CC[C@@H](C)[C@@](O)(O2)C(=O)C(=O)N2CCCC[C@H]2C(=O)O[C@H]([C@H](C)C[C@@H]2CC[C@@H](OCCO)[C@H](OC)C2)CC(=O)[C@H](C)/C=C(\C)[C@@H](O)[C@@H](OC)C(=O)[C@H](C)C[C@H](C)/C=C/C=C/C=C/1C [everolimus] + O=C(O)c1ccc2c(c1)nc(Nc1cccc(Cl)c1)c1ccncc12 [CX4945] (first compound 0.02 µM, partner dose 0.4 µM) as the compound, how does the cell count read?
Its cell count is 83.5%.

Which cell count does the source give for CO[C@H]1C[C@@H]2CC[C@@H](C)[C@@](O)(O2)C(=O)C(=O)N2CCCC[C@H]2C(=O)O[C@H]([C@H](C)C[C@@H]2CC[C@@H](OCCO)[C@H](OC)C2)CC(=O)[C@H](C)/C=C(\C)[C@@H](O)[C@@H](OC)C(=O)[C@H](C)C[C@H](C)/C=C/C=C/C=C/1C [everolimus] + Clc1ccc(Nc2nnc(Cc3ccncc3)c3ccccc23)cc1 [vatalanib] (first compound 0.02 µM, partner dose 2 µM) here?
The cell count was 69.3%.

CC(=O)c1c(C)c2cnc(Nc3ccc(N4CCNCC4)cn3)nc2n(C2CCCC2)c1=O [palbociclib] + COc1cc(Nc2ncc(F)c(Nc3ccc4c(n3)NC(=O)C(C)(C)O4)n2)cc(OC)c1OC [Tamatinib] (first compound 0.04 µM, partner dose 0.4 µM) was tested. Which cell count did it give?
Its cell count is 79.6%.

With CO[C@H]1C[C@@H]2CC[C@@H](C)[C@@](O)(O2)C(=O)C(=O)N2CCCC[C@H]2C(=O)O[C@H]([C@H](C)C[C@@H]2CC[C@@H](OCCO)[C@H](OC)C2)CC(=O)[C@H](C)/C=C(\C)[C@@H](O)[C@@H](OC)C(=O)[C@H](C)C[C@H](C)/C=C/C=C/C=C/1C [everolimus] + CNC(=O)c1cc(Oc2ccc(NC(=O)Nc3ccc(Cl)c(C(F)(F)F)c3)cc2)ccn1 [sorafenib] (first compound 0.02 µM, partner dose 0.4 µM) as the compound, how does the cell count read?
Its cell count is 93.5%.

CO[C@H]1C[C@@H]2CC[C@@H](C)[C@@](O)(O2)C(=O)C(=O)N2CCCC[C@H]2C(=O)O[C@H]([C@H](C)C[C@@H]2CC[C@@H](OCCO)[C@H](OC)C2)CC(=O)[C@H](C)/C=C(\C)[C@@H](O)[C@@H](OC)C(=O)[C@H](C)C[C@H](C)/C=C/C=C/C=C/1C [everolimus] + Cn1nnc2c(C(N)=O)ncn2c1=O [temozolomide] (first compound 0.02 µM, partner dose 2 µM) was tested. Which cell count did it give?
The cell count was 57.5%.

Which cell count does the source give for CO[C@H]1C[C@@H]2CC[C@@H](C)[C@@](O)(O2)C(=O)C(=O)N2CCCC[C@H]2C(=O)O[C@H]([C@H](C)C[C@@H]2CC[C@@H](OCCO)[C@H](OC)C2)CC(=O)[C@H](C)/C=C(\C)[C@@H](O)[C@@H](OC)C(=O)[C@H](C)C[C@H](C)/C=C/C=C/C=C/1C [everolimus] + Cc1ccc(NC(=O)c2cccc(N(C)C)c2)cc1NC(=O)c1ccc(O)cc1 [ZM336372] (first compound 0.02 µM, partner dose 2 µM) here?
The cell count was 88.6%.

Which cell count does the source give for CC(=O)c1c(C)c2cnc(Nc3ccc(N4CCNCC4)cn3)nc2n(C2CCCC2)c1=O [palbociclib] + COc1ccc(COc2ccc(Cc3cnc(N)nc3N)cc2OC)cc1 [GW2580] (first compound 0.04 µM, partner dose 1 µM) here?
The cell count was 104%.

With CO[C@H]1C[C@@H]2CC[C@@H](C)[C@@](O)(O2)C(=O)C(=O)N2CCCC[C@H]2C(=O)O[C@H]([C@H](C)C[C@@H]2CC[C@@H](OCCO)[C@H](OC)C2)CC(=O)[C@H](C)/C=C(\C)[C@@H](O)[C@@H](OC)C(=O)[C@H](C)C[C@H](C)/C=C/C=C/C=C/1C [everolimus] + CCc1ccc(CCOc2ccc(CC3SC(=O)NC3=O)cc2)nc1 [pioglitazone] (first compound 0.02 µM, partner dose 2 µM) as the compound, how does the cell count read?
The cell count was 73.4%.

Nc1ncn([C@H]2C[C@H](O)[C@@H](CO)O2)c(=O)n1 [decitabine] + COc1ccc(COc2ccc(Cc3cnc(N)nc3N)cc2OC)cc1 [GW2580] (first compound 0.1 µM, partner dose 1 µM) was tested. Which cell count did it give?
Its cell count is 122%.

Source: the supplement of paper PMC4604168 (melanoma cell lines)
